{"source": "PubChem BioAssay AID1240", "about": "(Sanford-Burnham Center for Chemical Genomics, 2008)", "note": "In all, about 50,000 compounds went through this assay and about 800 (1.6%) showed an effect of 50% or more. The list shows a part of the results."}
{"molecular_target": "Bcl-2-like protein 10 (Homo sapiens) (UniProt Q9HD36)", "sequence (Q9HD36 whole entry, looked up)": "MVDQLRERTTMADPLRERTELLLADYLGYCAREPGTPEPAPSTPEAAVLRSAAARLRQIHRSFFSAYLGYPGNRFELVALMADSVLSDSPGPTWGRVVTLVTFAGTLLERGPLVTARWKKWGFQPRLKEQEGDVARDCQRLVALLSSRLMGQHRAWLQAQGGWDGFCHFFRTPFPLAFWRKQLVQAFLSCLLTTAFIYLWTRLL", "experiment": "TR3 peptide-Bcl-B binding displacers, biochemical primary FP assay, phenotype converters (AID 1240);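 note: 0% = Bcl-B with tracer peptide and DMSO and 100% = tracer peptide lacking Bcl-B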", "conditions": "GST-Bcl-B / FITC-TR3 peptide fluorescence polarization; stronger effect = higher value; compound at 3.75 mg/L", "units": {"displacement": "%"}}
{"smiles": "COc1cc(NC(=O)c2ccc(-c3cccc(Cl)c3)o2)ccc1NC(=O)c1ccco1", "displacement": 15}
{"smiles": "CCc1ccc(S(=O)(=O)N2CCN(C)CC2)cc1", "displacement": 7.1}
{"smiles": "COc1cc(C=C2C(=O)N(C)C(=O)N(C)C2=O)ccc1OC(C)c1ccccc1", "note": "(stereo not drawn)", "displacement": 120}
{"smiles": "CC1=C(C)CC2C(=O)N(c3ccc([N+](=O)[O-])cc3)C(=O)C2C1", "note": "(stereo not drawn)", "displacement": -4.8}
{"smiles": "COc1ccc(C2C(C(=O)OC(C)C)=C(C)N=c3s/c(=C\\c4ccc(Br)o4)c(=O)n32)cc1", "note": "(stereo not drawn)", "displacement": 5.3}
{"smiles": "O=C(NCC1CCN(C(=O)c2c(F)c(F)c(F)c(F)c2F)CC1)c1c(F)c(F)c(F)c(F)c1F", "displacement": -0.8}
{"smiles": "CC1=C(C(=O)Nc2cccc(C)c2)C(c2ccc(Br)cc2)NC(=O)N1", "note": "(stereo not drawn)", "displacement": 11.8}
{"smiles": "Cc1ccc(C(=O)Nc2ccccc2)cc1", "displacement": -0.6}
{"smiles": "O=C1c2ccc(-c3nc4ccccc4c(=O)o3)cc2C(=O)N1c1ccc(I)cc1", "displacement": -7.1}
{"smiles": "O=C(O)C1CCCCC1C(=O)N1CCN(c2ccc(Cl)cc2)CC1", "note": "(stereo not drawn)", "displacement": 4.5}
{"smiles": "COc1ccc(NC(=O)c2c(N)sc(-c3ccccc3)c2C)cc1", "displacement": -3.6}
{"smiles": "COc1ccc(OC)c(S(=O)(=O)N2CCC(Cc3ccccc3)CC2)c1", "displacement": 14.9}
{"smiles": "Cc1c(Cl)cccc1N1C(=O)C2C3C=CC(C3=C3CCCCC3)C2C1=O", "note": "(stereo not drawn)", "displacement": -3.3}
{"smiles": "O=C(c1cccc2c(Br)cccc12)N1CCN(c2ccc([N+](=O)[O-])cc2)CC1", "displacement": 12.9}
{"smiles": "CC(C)C(=O)NS(=O)(=O)c1ccc(N)cc1", "displacement": 13.6}
{"smiles": "CCOC(=O)c1c(C)oc2ccc(OCc3ccccc3)cc12", "displacement": 8}
{"smiles": "CCCCCCOc1ccc(N2C(=O)CC(N3CCN(Cc4ccccc4)CC3)C2=O)cc1", "note": "(stereo not drawn)", "displacement": 10}
{"smiles": "COc1cc(OC)c(OC)cc1CN1CCN(C(=O)c2ccccc2F)CC1", "displacement": -0.9}
{"smiles": "COc1cccc(NC(=O)CN(c2ccccc2)S(=O)(=O)c2ccccc2[N+](=O)[O-])c1", "displacement": 18.5}
{"smiles": "COc1ccc(C2Nc3ccccc3NC3=C2C(=O)CC(C)(C)C3)cc1", "note": "(stereo not drawn)", "displacement": 1}
{"smiles": "Cc1ccc(C(=O)Nc2ccc(OC(F)(F)F)cc2)cc1", "displacement": 36.3}
{"smiles": "CCC(=O)c1ccc(Br)cc1[N+](=O)[O-]", "displacement": -10.2}
{"smiles": "CC(=O)C(/C=N/c1ncc(C(F)(F)F)cc1Cl)=C(\\C)O", "displacement": -1.7}
{"smiles": "O=C(Nc1ccc2c(c1)oc1ccccc12)c1cccc2ccccc12", "displacement": 2.3}
{"smiles": "CC1(C)Cc2ccccc2/C(=C/C(=O)c2ccccc2[N+](=O)[O-])N1", "displacement": 11.8}
{"smiles": "COc1ccc(NC(=O)CN(c2ccccc2)S(=O)(=O)c2ccccc2[N+](=O)[O-])c(OC)c1", "displacement": 3.3}
{"smiles": "Cc1occc1C(=O)O/N=C(\\N)c1ccccc1", "displacement": 14.5}
{"smiles": "CS(=O)(=O)N(CC(=O)Nc1cccc(Cl)c1)c1cccc(C(F)(F)F)c1", "displacement": 6}
{"smiles": "Cc1cccc(N2C(=O)CSC2=O)c1", "displacement": -0.8}
{"smiles": "Cc1cccc(CC2SC(=Nc3ccccc3)NC2=O)c1", "note": "(stereo not drawn)", "displacement": 1.4}
{"smiles": "O=C(CSc1nnc(CCCN2C(=O)c3cccc4cccc(c34)C2=O)n1-c1ccccc1)NCCCN1CCOCC1", "displacement": -7}
{"smiles": "CS(=O)(=O)N(CC(=O)NC1CCCCC1)c1ccc(Oc2ccccc2)cc1", "displacement": 5.8}
{"smiles": "O=S(=O)(NCC(c1ccccc1)N1CCNCC1)c1ccc(Cl)cc1", "note": "(stereo not drawn)", "displacement": 12.2}
{"smiles": "Cc1ccc(S(=O)(=O)Nc2nc(O)c(C3=c4cc(Cl)ccc4=NC3=O)s2)cc1", "displacement": 12.1}
{"smiles": "CN1C(=O)/C(=C/c2ccc(C(=O)O)cc2)SC1=S", "displacement": 10.4}
{"smiles": "CCc1ccc(-n2c(C)cc(/C=N/n3cnnc3)c2C)cc1", "displacement": -2.3}
{"smiles": "CCOC(=O)c1c(NC(=O)C23CC4CC(CC(C4)C2)C3)sc(C(=O)Nc2ccccc2OC)c1C", "displacement": 16.1}
{"smiles": "O=C(Nc1ccc(Cl)c(Cl)c1)c1nn2c(c1Br)NC(c1cccs1)CC2C(F)(F)F", "note": "(stereo not drawn)", "displacement": 2.8}
{"smiles": "O=C1C2C3C=CC(C4CC34)C2C(=O)N1c1ccc(F)cc1", "note": "(stereo not drawn)", "displacement": 2.2}
{"smiles": "O=C1N=C(N2CCOCC2)S/C1=C/c1ccc(Cl)cc1Cl", "displacement": 4.8}
{"smiles": "CC1=C(C(=O)Nc2ccccc2Cl)C(c2ccc([N+](=O)[O-])cc2)NC(=O)N1", "note": "(stereo not drawn)", "displacement": -10.5}
{"smiles": "COc1ccc(OC(C)C(=O)NCCc2nc3ccccc3[nH]2)cc1", "note": "(stereo not drawn)", "displacement": 1.4}
{"smiles": "COC(=O)C1=NN(C(=O)c2ccc(Br)cc2)C(O)(C(C)(C)C)C1", "note": "(stereo not drawn)", "displacement": 16.2}
{"smiles": "O=C1OC(c2ccc(Cl)cc2)=C/C1=C\\c1ccco1", "displacement": 9.7}
{"smiles": "Cc1ccc(C(=O)Nc2cc(C(F)(F)F)cc(C(F)(F)F)c2)cc1", "displacement": -4.7}
{"smiles": "O=C1NC(=S)N(c2ccccc2)C(=O)/C1=C/c1cccn1-c1ccccc1", "displacement": 31.2}
{"smiles": "CC1CCOP(=O)(C(Nc2ccc(C(C)C)cc2)c2ccc([N+](=O)[O-])cc2)O1", "note": "(stereo not drawn)", "displacement": -1.6}
{"smiles": "O=S(=O)(c1cccs1)N1CCc2ccccc2C1", "displacement": 9.9}
{"smiles": "CCOC(=O)C/C(C)=N\\NS(=O)(=O)c1ccc(Oc2ccc([N+](=O)[O-])cc2)cc1", "displacement": -8.5}
{"smiles": "COc1ccc(OC)c(NC(=O)COc2ccc(Cl)c(C)c2)c1", "displacement": -2.9}
{"smiles": "Cc1ccc2nc(-c3ccc(OC(=O)c4ccccc4F)cc3)sc2c1", "displacement": 76.4}
{"smiles": "CCCn1c(NCCO)nc2ccccc21", "displacement": 0.7}
{"smiles": "NC1=NC2(CCCC2)N=C(Nc2ccc(Cl)cc2)N1", "displacement": -7.8}
{"smiles": "COc1ccc(-n2cnc(N)c2C(=O)c2cccc([N+](=O)[O-])c2)cc1", "displacement": 14.8}
{"smiles": "O=C(NCc1ccc2c(c1)OCO2)C(=O)Nc1nc(C23CC4CC(CC(C4)C2)C3)cs1", "displacement": -15.1}
{"smiles": "Cc1cccc(C)c1OCC(=O)Nc1cc(C(=O)O)cc(C(=O)O)c1", "displacement": -9.1}
{"smiles": "Brc1cccc(-c2nnc(-c3ccccc3)o2)c1", "displacement": 3.6}
{"smiles": "CCCn1c(C(O)(c2ccccc2)c2ccccc2)nc2ccccc21", "displacement": 10.4}
{"smiles": "COc1ccc(C2SCC(=O)N2c2c(C)n(C)n(-c3ccccc3)c2=O)cc1", "note": "(stereo not drawn)", "displacement": -6.2}
{"smiles": "COc1ccc(/C=C(\\NC(=O)c2ccc([N+](=O)[O-])cc2)C(=O)NCCCn2ccnc2)cc1", "displacement": 8.3}
{"smiles": "CC1C(=O)C(C)C(c2ccc3c(c2)OCO3)NC1c1ccc2c(c1)OCO2", "note": "(stereo not drawn)", "displacement": -8.4}
{"smiles": "CCOC(=O)C1=C(c2ccccc2)N=c2s/c(=C\\c3cccnc3)c(=O)n2C1c1cc(OC)ccc1OC", "note": "(stereo not drawn)", "displacement": -3}
{"smiles": "O=C(Nc1cccc2ccccc12)N(Cc1ccccc1)Cc1ccccc1", "displacement": -9}
{"smiles": "CSc1ccccc1NC(=O)c1nn2c(c1Br)NC(c1ccccc1)CC2C(F)(F)F", "note": "(stereo not drawn)", "displacement": 2.7}
{"smiles": "S=C(Nc1ccccc1)Nc1ccc(Nc2ccccc2)cc1", "displacement": -3.1}
{"smiles": "CC(C)(C)C#C/C=N/n1nnc(-c2ccccc2)n1", "displacement": 13.6}
{"smiles": "CC1(C)Cc2ccccc2C(NN=C2CCCCC2)=N1", "displacement": -7.3}
{"smiles": "O=C(N/C(=C/c1ccc2c(c1)OCO2)C(=O)N1CCOCC1)c1ccco1", "displacement": 6.1}
{"smiles": "C/C(=N\\Nc1nnc2c(n1)[nH]c1ccccc12)c1ccccn1", "displacement": 21.4}
{"smiles": "Cc1ccc(OCC(=O)Nc2nc(-c3ccccc3)cs2)cc1C", "displacement": -7.3}
{"smiles": "Fc1ccc(COC(CN2CCCCC2)CN2CCCCC2)cc1", "displacement": 0.1}
{"smiles": "O=C(N/C(=C/c1ccc(Br)cc1)C(=O)N1CCCC1)c1cccs1", "displacement": -11.3}
{"smiles": "C=CCN1C(=O)C(Cc2ccc(OC)cc2)S/C1=N\\N=C\\c1cccs1", "note": "(stereo not drawn)", "displacement": 12.8}
{"smiles": "CCN1C(=O)/C(=C/c2cccs2)SC1=S", "displacement": -2.3}
{"smiles": "O=C(Nc1ccc2nn(-c3ccc(Cl)cc3)nc2c1)c1ccc2c(c1)OCCO2", "displacement": 13.1}
{"smiles": "COc1cccc(OCCCCN2CCC(C)CC2)c1", "displacement": -6}
{"smiles": "COc1cccc(/C=C2\\SC(=S)N(CC(=O)Nc3nccs3)C2=O)c1", "displacement": 49.7}
{"smiles": "COc1cccc(/C=C/C2=NN(c3ccc(F)cc3)C(c3cccc(OC)c3OC)C2)c1OC", "note": "(stereo not drawn)", "displacement": 7.8}
{"smiles": "CCOC(=O)c1cccc(N2C(=O)C3C4C=CC(C4)C3C2=O)c1", "note": "(stereo not drawn)", "displacement": -6.9}
{"smiles": "Cc1ccccc1NCC(=O)N/N=C\\c1ccccc1O", "displacement": -13.3}
{"smiles": "CCC(C)NC(=O)Nc1ccc(Cl)cc1", "note": "(stereo not drawn)", "displacement": 2.7}
{"smiles": "N#Cc1c(N)sc2c1CCCCCC2", "displacement": 18.3}
{"smiles": "O=C(Nc1ccc(Nc2ccccc2)cc1)c1ccc(Cl)cc1Cl", "displacement": -13.5}
{"smiles": "Cc1ccc(C(=O)O)cc1NC(=O)C1C2CCC(C2)C1C(=O)O", "note": "(stereo not drawn)", "displacement": -2.4}
{"smiles": "COc1ccc(N(CC(=O)O)S(=O)(=O)c2ccc(C)cc2)c(OC)c1", "displacement": 2.5}
{"smiles": "Cc1ccc(S(=O)(=O)NC(C)(C)CN2CCCCC2)cc1", "displacement": -2.6}
{"smiles": "CCOc1ccc(C(=O)Nc2cc(OC)ccc2OC)cc1[N+](=O)[O-]", "displacement": 7.8}
{"smiles": "O=C(Nc1ccc(Cl)c(Cl)c1)Nc1nnc(SCc2ccccc2)s1", "displacement": 3.9}
{"smiles": "O=C(NC1CC1)c1cc(-c2cccs2)nc2ccccc12", "displacement": -3.9}
{"smiles": "Cc1ccc(OCC(=O)N/N=C\\c2ccc(-c3ccc(Cl)cc3)o2)cc1", "displacement": 38.4}
{"smiles": "Cc1cc(OCC(=O)Nc2ccc([N+](=O)[O-])cc2)cc(C)c1Cl", "displacement": 26.7}
{"smiles": "O=C(Cc1ccccc1)NCc1ccco1", "displacement": -2.5}
{"smiles": "Cc1ccc(C(=O)Nc2cc(-c3ccc(F)cc3)[nH]n2)cc1", "displacement": 11.8}
{"smiles": "O=C(O)CCCCCN1C(=O)C(O)=C(C(=O)/C=C/c2ccccc2)C1c1ccc([N+](=O)[O-])cc1", "note": "(stereo not drawn)", "displacement": -4.6}
{"smiles": "Cc1c(N=Cc2cccc(Cl)c2)cccc1[N+](=O)[O-]", "displacement": 10.3}
{"smiles": "NC(=O)C1CCN(C(=O)COc2ccc(Br)cc2)CC1", "displacement": -0.3}
{"smiles": "COc1ccc(OCC2CNC(=O)O2)cc1", "note": "(stereo not drawn)", "displacement": -8.5}
{"smiles": "COc1cc(NS(=O)(=O)c2ccc(NC(=S)NC(=O)/C=C/c3ccc(F)cc3)cc2)ncn1", "displacement": 18.6}
{"smiles": "COc1cc(/C=C(\\C#N)C(=O)Nc2cccc(Cl)c2)ccc1O", "displacement": -56.2}
{"smiles": "COc1cc(/C=N/n2cnnc2)cc(OC)c1O", "displacement": 9.4}
{"smiles": "O=C(CSc1nc2ccc([N+](=O)[O-])cc2s1)NCc1ccccc1", "displacement": -7.6}
{"smiles": "CC(=O)Nc1ccc(N=Cc2ccc(Cl)c([N+](=O)[O-])c2)cc1", "displacement": -3}
{"smiles": "O=[N+]([O-])c1ccc(NCCCNS(=O)(=O)c2ccccc2)c(C(F)(F)F)c1", "displacement": 10.5}
{"smiles": "O=S(=O)(N/N=C/c1ccc(Br)cc1)c1ccccc1", "displacement": 5.1}
{"smiles": "C/C(=N\\Nc1nc(-c2ccccc2)nc(C)c1C)c1cccc([N+](=O)[O-])c1", "displacement": -11.6}
{"smiles": "CCC(=O)Nc1cc2nn(-c3ccc(OC)cc3)nc2cc1C", "displacement": 4.7}
{"smiles": "Cc1cc(C(=O)Oc2ccc(Cl)cc2)ccc1[N+](=O)[O-]", "displacement": 1.3}
{"smiles": "Cc1ccc(-c2ccc(OCC(=O)Nc3ccc(S(=O)(=O)Nc4nccs4)cc3)cc2)cc1", "displacement": -13.2}
